{"source": "PubChem BioAssay AID588342", "about": "(National Center for Advancing Translational Sciences (NCATS), 2011)", "note": "In all, about 360,000 compounds went through this assay and about 25,000 (6.9%) were called active. The shares of active, inactive and inconclusive entries below differ from those in the screen. The call rests on the fitted dose curve; in most records, active means well fitted inhibition curve with a large enough effect; inconclusive means small, poorly fitted or top-dose-only effect; inactive means flat fitted curve, though single readings scatter. Where the call is inconclusive, the potency comes from a doubtful curve fit. Potency means the concentration at half of the fitted maximal effect; tags describe the fitted curve by direction and shape.", "data": [{"target": "Luciferin 4-monooxygenase (Photinus pyralis) (UniProt P08659)", "sequence (P08659 whole entry, looked up)": "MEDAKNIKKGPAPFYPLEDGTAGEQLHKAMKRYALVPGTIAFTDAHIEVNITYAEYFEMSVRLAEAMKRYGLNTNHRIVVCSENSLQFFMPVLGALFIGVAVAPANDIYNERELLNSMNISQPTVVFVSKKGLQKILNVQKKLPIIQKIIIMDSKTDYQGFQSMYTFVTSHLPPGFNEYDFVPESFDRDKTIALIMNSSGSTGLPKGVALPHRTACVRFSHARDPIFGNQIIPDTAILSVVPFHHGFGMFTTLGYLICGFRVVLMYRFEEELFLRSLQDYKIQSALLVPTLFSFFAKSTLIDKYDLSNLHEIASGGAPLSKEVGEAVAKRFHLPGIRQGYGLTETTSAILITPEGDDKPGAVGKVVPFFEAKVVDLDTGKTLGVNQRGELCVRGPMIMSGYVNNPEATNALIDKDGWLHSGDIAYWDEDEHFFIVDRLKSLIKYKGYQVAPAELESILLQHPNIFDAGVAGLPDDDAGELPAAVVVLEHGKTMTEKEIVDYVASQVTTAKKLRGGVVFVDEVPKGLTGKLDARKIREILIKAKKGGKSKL", "assay": "qHTS profiling assay for firefly luciferase inhibitor/activator using purifed enzyme and Km concentrations of substrates (counterscreen for miR-21 project); further: nearly all actives have a fitted effect of over 55% in size;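 on activity change, negative = inhibition: plate controls were vehicle for no effect and reference inhibitor for full effect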", "details": "purified FLuc, luminescence inhibition; activity change, negative = inhibition: at 57.5 µM (top of the series)", "procedure,_shortened": "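Biochemical qHTS of compounds, final roughly 60 µM downward over six points, against 10 nM purified firefly luciferase using Km concentrations of substrates (10 uM D-luciferin, 10 uM ATP) in Tris acetate pH 7.5 buffer; luminescence output.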", "values": [{"smiles": "O=C(NCc1ccco1)c1cc(-c2cccs2)on1", "Potency": "active: 10.7 µM"}, {"smiles": "COCCN1C(=O)CC(NNC(=O)c2ccc(S(=O)(=O)N3CCCC3)cc2)C1=O", "note": "(centres undefined)", "activity change, negative = inhibition": "inactive: -0.338%"}, {"smiles": "Cc1cccc(C)c1-n1c(C)cc(/C=N/NC(=O)CSc2ncccn2)c1C", "Potency": "inconclusive: 26.9 µM [inhibitor, partial curve, poor fit]"}, {"smiles": "Cc1cc(C)n(-c2nnc3n2N=C(c2c[nH]c4ccccc24)CS3)n1", "activity change, negative = inhibition": "inactive: 4.63%"}, {"smiles": "CCn1c(C)nc2cc(C(=O)NNC(=S)NC(=O)c3ccc(OC)cc3)ccc21", "Potency": "inconclusive: 26.9 µM [inhibitor, partial curve, poor fit]"}, {"smiles": "Cc1oc(-c2ccc3c(c2)OCCO3)cc1C(=O)NC(Cc1ccccc1)C(=O)O", "note": "(centres undefined)", "Potency": "active: 15.1 µM"}, {"smiles": "O=C(Nc1ccc(SC(F)F)cc1)c1cc(-c2ccc3c(c2)OCCO3)on1", "Potency": "active: 5.36 µM"}, {"smiles": "O=C(Nc1ccccc1)OCc1ccccn1", "Potency": "inconclusive: 30.1 µM [inhibitor, single point]"}, {"smiles": "COc1cccc(Cn2c(=O)sc3ccccc3c2=O)c1", "Potency": "inconclusive: 26.9 µM [inhibitor, single point]"}, {"smiles": "Cc1nc(C)n(CC(C)C(=O)N2CCN(S(=O)(=O)c3ccccc3)CC2)n1", "note": "(centres undefined)", "activity change, negative = inhibition": "inactive: 1.67%"}, {"smiles": "COc1ccc(C)cc1NC(=O)C1CCN(C(=O)c2ccc(C(C)(C)C)cc2)CC1", "Potency": "inconclusive: 26.9 µM [inhibitor, partial curve, poor fit]"}, {"smiles": "NC1=NC(=O)/C(=C\\c2cccs2)S1", "Potency": "inconclusive: 23.9 µM [inhibitor, single point]"}, {"smiles": "Cc1ccc(C)c(NC(=O)C2CCCN(S(=O)(=O)c3ccc4[nH]c(=O)ccc4c3)C2)c1", "note": "(centres undefined)", "Potency": "inactive"}, {"smiles": "Cn1nccc1NC(=O)Nc1ccc(Cl)cc1", "Potency": "inconclusive: 21.3 µM [inhibitor, partial curve, poor fit]"}, {"smiles": "COc1cc(OC)cc(C(=O)NC2CCCCCCC2)c1", "Potency": "inconclusive: 26.9 µM [inhibitor, partial curve, poor fit]"}, {"smiles": "CCCOc1cccc(-c2cc(C(=O)NNC(=S)NCC)c3ccccc3n2)c1", "Potency": "active: 0.757 µM"}, {"smiles": "Cc1[nH]c2ccccc2c1/C=N/Nc1nncn1N", "Potency": "active: 2.13 µM"}, {"smiles": "COc1ccc(-c2noc(-c3ccc(NC4CCCC4)c([N+](=O)[O-])c3)n2)cc1", "Potency": "inconclusive: 9.53 µM [inhibitor, partial curve, poor fit]"}, {"smiles": "CCOC(=O)N1CCN(C(=O)c2oc3ccc(S(=O)(=O)N4CCCCCC4)cc3c2C)CC1", "activity change, negative = inhibition": "inactive: 4.87%"}, {"smiles": "COc1ccc(-c2cc(=O)c3cc(OC)ccc3o2)cc1", "Potency": "active: 0.213 µM"}, {"smiles": "O=C1/C(=C/c2cccs2)SC(=S)N1NS(=O)(=O)c1ccccc1", "Potency": "inconclusive: 37.9 µM [inhibitor, partial curve, poor fit]"}, {"smiles": "C=C1CC(C(=O)N/N=C/c2ccccc2)C1", "Potency": "inconclusive: 23.9 µM [inhibitor, partial curve, poor fit]"}, {"smiles": "CS(=O)(=O)N(CC(=O)NCCSc1ccccc1)c1cc(C(F)(F)F)ccc1Cl", "Potency": "inconclusive: 37.9 µM [inhibitor, partial curve, poor fit]"}, {"smiles": "CC1CCCC(NS(=O)(=O)c2cc(Br)cnc2N)C1C", "note": "(centres undefined)", "activity change, negative = inhibition": "inactive: 1.04%"}, {"smiles": "O=C(Cc1csc(NC(=O)Nc2ccc(Cl)cc2)n1)NCc1ccccn1", "Potency": "active: 1.07 µM"}, {"smiles": "COc1cccc(C2C(C(=O)Nc3ccccc3)=C(C)Nc3nc(-c4ccccc4)nn32)c1", "note": "(centres undefined)", "activity change, negative = inhibition": "inactive: -7.63%"}, {"smiles": "COc1ccc(NC(=O)NCc2ccc3c(c2)OCO3)c(OC)c1", "activity change, negative = inhibition": "inactive: 6.28%"}, {"smiles": "C[C@@H](NC(=O)c1nc[nH]c1C(=O)N1CCN(C(=O)OC(C)(C)C)CC1)c1ccccc1", "activity change, negative = inhibition": "inactive: 6.17%"}, {"smiles": "Cc1[nH]n(C(N)=S)c(=O)c1N=Nc1ccc(S(=O)(=O)N2CCCC2)cc1", "Potency": "active: 19 µM"}, {"smiles": "CCCn1c(=S)[nH]c2ccccc2c1=O", "Potency": "active: 13.5 µM"}, {"smiles": "COc1ccccc1C(=O)Nc1nc2cc3c(cc2s1)OCCO3", "Potency": "active: 0.675 µM"}, {"smiles": "COc1ccccc1/C=C1\\SC(=O)N(CCC(=O)N2CCCCC2CCO)C1=O", "note": "(centres undefined)", "Potency": "inconclusive: 23.9 µM [inhibitor, partial curve, poor fit]"}, {"smiles": "CC(Cc1ccccc1)C(=O)NCc1nc2ccccc2s1", "note": "(centres undefined)", "Potency": "inconclusive: 19 µM [inhibitor, partial curve, poor fit]"}, {"smiles": "COc1ccc(NC(=O)c2cc3ccccc3o2)cc1OC", "Potency": "active: 15.1 µM"}, {"smiles": "O=C(CSc1nnc(COc2ccc(Cl)cc2)o1)NC1CC2CCC1C2", "note": "(centres undefined)", "Potency": "inconclusive: 21.3 µM [inhibitor, single point]"}, {"smiles": "O/N=C1/CCCSc2ccccc21", "activity change, negative = inhibition": "inactive: -0.0051%"}, {"smiles": "CCCC(NC(=O)CCc1c(C)c2cc3c(-c4ccccc4)coc3cc2oc1=O)C(=O)O", "note": "(centres undefined)", "Potency": "inconclusive: 37.9 µM [inhibitor, partial curve, poor fit]"}, {"smiles": "COc1ccc2nc(N3CCCC(O)C3)c(C#N)cc2c1", "note": "(centres undefined)", "Potency": "active: 7.57 µM"}, {"smiles": "COc1ccccc1-c1noc(CSc2nc3ccc(C)cc3[nH]2)n1", "Potency": "inconclusive: 21.3 µM [inhibitor, partial curve, poor fit]"}, {"smiles": "Cc1cccc(OCCCN2C(=O)C(=O)c3cc(C)ccc32)c1", "Potency": "inconclusive: 37.9 µM [inhibitor, partial curve, poor fit]"}, {"smiles": "O=C(O)COc1ccc(/C=C/c2nc3ccc([N+](=O)[O-])cc3s2)cc1", "Potency": "active: 4.78 µM"}, {"smiles": "COc1cc(NC(=O)c2nnn(CC(=O)Nc3ccccc3)c2N)cc(OC)c1", "activity change, negative = inhibition": "inactive: 4.54%"}, {"smiles": "CC(=O)Oc1oc(-c2ccccc2)nc1/C=N/c1ccccn1", "Potency": "active: 21.3 µM"}, {"smiles": "Cc1c(C(=O)O)nnn1-c1ccccc1", "activity change, negative = inhibition": "inactive: -0.204%"}, {"smiles": "Cc1ccc2nc(-c3ccc(NC(=O)COc4c(C)ccc(C)c4C)cc3)sc2c1", "Potency": "active: 19 µM"}, {"smiles": "COc1cc(NC(=O)c2cccs2)ccc1NC(=O)Cc1ccccc1", "Potency": "inconclusive: 16.9 µM [inhibitor, partial curve]"}, {"smiles": "CCS(=O)(=O)N1CCCC(c2nc(-c3cccc(OC)c3)no2)C1", "note": "(centres undefined)", "Potency": "inconclusive: 15.1 µM [inhibitor, single point]"}, {"smiles": "COc1ccccc1C(=O)Oc1ccc2c(c1)O/C(=C\\c1ccncc1)C2=O", "Potency": "inconclusive: 23.9 µM [inhibitor, single point]"}, {"smiles": "COc1ccccc1Nc1cc(C(=O)N2CCc3ccccc3C2)c2ccccc2n1", "Potency": "inconclusive: 26.9 µM [inhibitor, single point]"}, {"smiles": "O=C(Nc1ccc2c(c1)OCO2)Nc1cnccn1", "Potency": "inconclusive: 33.8 µM [inhibitor, single point]"}, {"smiles": "CC1CN(c2ccccc2)NC1=O", "note": "(centres undefined)", "activity change, negative = inhibition": "inactive: 0.868%"}, {"smiles": "CCC(=O)Nc1cccc(-c2csc(-c3ccccc3)n2)c1", "Potency": "active: 15.1 µM"}, {"smiles": "CCOc1ccc(CCNC(=O)Cn2nnc(-c3ccc(OC)c(OC)c3)n2)cc1OCC", "activity change, negative = inhibition": "inactive: -7.22%"}, {"smiles": "Cc1ccc(S(=O)(=O)/N=C2\\C=C(Nc3cccc(C(=O)O)c3)C(=O)c3ccccc32)c(C)c1", "Potency": "inconclusive: 37.9 µM [inhibitor, single point]"}, {"smiles": "Cc1ccc(-c2nnc(SCC(=O)N3CCc4ccccc43)o2)cc1", "activity change, negative = inhibition": "inactive: 1.53%"}, {"smiles": "CC(=O)NCCOc1ccc2oc3ccccc3c2c1", "Potency": "active: 16.9 µM"}, {"smiles": "Cc1ccc(C(=O)C2=C(O)C(=O)N(Cc3cccnc3)C2c2ccc(OC(C)C)cc2)o1", "note": "(centres undefined)", "Potency": "inconclusive: 23.9 µM [inhibitor, single point]"}, {"smiles": "CC(=O)NC12CC3CC(C1)CC(C(=O)N(C)Cc1cccc(Cl)c1Cl)(C3)C2", "Potency": "inconclusive: 26.9 µM [inhibitor, single point]"}, {"smiles": "CCCN1C(=O)/C(=C/c2ccc(N3CCCC3)c(C)c2)NC1=S", "Potency": "inconclusive: 19 µM [inhibitor, partial curve]"}, {"smiles": "CN(C)S(=O)(=O)c1cccc(C(=O)OCC(=O)Nc2ccc3c(c2)OCCO3)c1", "Potency": "inconclusive: 21.3 µM [inhibitor, single point]"}, {"smiles": "CCOc1ccc(Nc2nc3ccccc3n3nnnc23)cc1", "Potency": "inconclusive: 10.7 µM [inhibitor, partial curve, poor fit]"}, {"smiles": "CC(C)(CO)NC(=O)c1ccc2nc(Cc3cccc(Cl)c3)oc2c1", "Potency": "inconclusive: 16.9 µM [inhibitor, partial curve]"}, {"smiles": "CCOc1cc(/C=C(\\C#N)c2nc(-c3cccs3)c(NC(C)=O)s2)ccc1O", "Potency": "inconclusive: 2.69 µM [inhibitor, full curve]"}, {"smiles": "O=C(N/N=C/C=C/c1ccccc1)c1cccnc1", "Potency": "inconclusive: 37.9 µM [inhibitor, partial curve, poor fit]"}, {"smiles": "COc1ccc(CCCc2n[nH]c(=S)o2)c(C)c1", "Potency": "inconclusive: 23.9 µM [inhibitor, partial curve, poor fit]"}, {"smiles": "CCCCc1nc(SCc2ccc([N+](=O)[O-])cc2)n[nH]1", "activity change, negative = inhibition": "inactive: 0.541%"}, {"smiles": "O=C(CNC(=O)c1ccccc1Br)N/N=C/c1cccs1", "Potency": "inconclusive: 37.9 µM [inhibitor, partial curve, poor fit]"}, {"smiles": "Cc1cc(C(F)(F)F)n(-c2nc(C(=O)N/N=C/c3ccc(F)cc3)cs2)n1", "Potency": "inconclusive: 26.9 µM [inhibitor, partial curve, poor fit]"}, {"smiles": "CCOc1ccccc1OC(=O)c1cc2ccccc2oc1=O", "Potency": "inconclusive: 37.9 µM [inhibitor, single point]"}, {"smiles": "COc1ccc(CCNC(=O)c2cc(-c3ccccc3)nc3ccccc23)cc1OC", "Potency": "inconclusive: 23.9 µM [inhibitor, partial curve, poor fit]"}, {"smiles": "Cc1cc(C)n2nc(SCc3nnc(SCc4ccccc4Cl)s3)nc2n1", "Potency": "active: 16.9 µM"}, {"smiles": "CN(C)C(=O)CSc1nnc(CCN)o1", "activity change, negative = inhibition": "inactive: 4.93%"}, {"smiles": "O=CN(/C=C1\\Sc2ccccc2C1=O)Cc1ccccc1", "Potency": "active: 10.7 µM"}, {"smiles": "CSCC[C@H](NS(=O)(=O)c1ccc(C)cc1)C(=O)N1CCC(C(=O)N[C@@H](Cc2ccc(O)cc2)C(=O)O)CC1", "activity change, negative = inhibition": "inactive: 1.37%"}]}]}
